The values below come from the supplement of paper PMC11417369.

The other results are listed elsewhere or left out.

This experiment deals with PF3D7_0420300 AP2 domain 1 (GST-tagged). In words: gcPBM binding intensity (ln(normalized median fluorescence intensity)); higher = stronger DNA binding. In a few lines: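 Probes on an Agilent 4 × 180k array were primer-extended, double-stranded and 36 bp long, taken from intergenic genomic regions, with negative controls added. GST-tagged P. falciparum DNA-binding domains from E. coli, about 25 μg on average, were applied to the array for 1 h in 1× PBS containing 1% milk, 0.2 mg/ml BSA, 0.5% salmon testes DNA and 0.03% Triton X-100. Binding intensity, obtained after Alexa488 anti-GST antibody detection and a 488 nm scan, is the highest Masliner-normalised natural-log median intensity across replicate spots of either probe orientation.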
Turning to “CATATTTGTATATGCACACATAAATTTTTCCATTTC [CACACA_site3467]”, the “gcPBM binding intensity (ln)” value was 9.33. Next, “AAATTTTTAAACAGCACACATAAATATAATATATAT [CACACA_site2208]”: 9.5; “TTTTTTTTTAATTATGCATGTAAATTATATATTATA [TGCATGCA_site335]”: 9.1; “AATAAACATATATGTACACACATATACATATATATA [CACACA_site2848]”: 9.51. Turning to “TATTTATAATTAAATACACACATATATTATATATTT [CACACA_site616]”, the “gcPBM binding intensity (ln)” value came out at 9.37. With “TATACGCATATATAAACACACAAAAAAAAAAAAAAA [CACACA_site2026]”, the “gcPBM binding intensity (ln)” value is 9.19. On to “TTAGCTACACGCTAATGTACACAAATACAAAGAAAA [XGTACX_site3993]”, for which the “gcPBM binding intensity (ln)” value came out at 9.09. As to “TATATTAATTTATATCAACACACAAAATCAATATAC [CACACA_site8518]”, the “gcPBM binding intensity (ln)” value is 9.62.

In the case of “ATAAAATATTATATATATATATATATATATATATAT [CACACA_negctrl_site215]”, the “gcPBM binding intensity (ln)” value amounted to 8.94.

Consider “AAATTATTTATATGTTGTACTTATCCATTTTTATAA [XGTACX_site7441]”, for which the “gcPBM binding intensity (ln)” value stood at 9.33. For the sequence “TATATTTATAGACACACACACAAAAAAAAAAAAAAA [CACACA_site6818]”, the “gcPBM binding intensity (ln)” value turned out to be 9.75. Next, “TAATTTTTTTTATTATGTACTTAATAAATGTTAATT [XGTACX_site365]”: 9.15. “CCTTTATAAAAAAGTAGTACACAATGAATTTATAAT [XGTACX_site5523]”: the “gcPBM binding intensity (ln)” value was 9.26. For “CAATACTAATTGTATACACACAAAAATATACCATAT [CACACA_site3326]” the value was 9.7. In the case of “AATTGATACCTTACATGTACATAATATATATAAATA [XGTACX_site321]”, the “gcPBM binding intensity (ln)” value was 9.23. Take “TTTTTACATACAAATTAACACACATATAGAAAAGAG [CACACA_site8570]”: the “gcPBM binding intensity (ln)” value was found to be 9.58.

In the case of “GAACCATTTTTTGGTATACACACGTAATTATATAAT [CACACA_site8552]”, the “gcPBM binding intensity (ln)” value came out at 9.31. Next, “TGTTAATTAAAACATCATTAATATTATTAAAAATAC [XGTACX_negctrl_site509]”: 8.99.

In the case of “TCTTTTTTTACTTTCTTTTTTTTTTTTTTTTTTTTT [XGTACX_negctrl_site610]”, the “gcPBM binding intensity (ln)” value was found to be 9.11.

Take “CCTTATAAATACTGCACACATAAAATATATATTATC [CACACA_site2806]”: the “gcPBM binding intensity (ln)” value is 9.5. Take “TTTGTTCATATGAAATGTACAAAAAAAAAAAAAAAA [XGTACX_site8849]”: the “gcPBM binding intensity (ln)” value came to 8.5.

On to “TTTTATCGTTTTTTTTTTTTTTTTTTTTTTTTTTTT [CACACA_negctrl_site1309]”, for which the “gcPBM binding intensity (ln)” value is 9.28. “ATGTAGAAGTAATGCACACATATGTATTTATATATA [CACACA_site5391]”: the “gcPBM binding intensity (ln)” value worked out at 9.4. Turning to “AAAAAAATTAATATGTCAGCACATATATACATACAT [GTGCAC_negctrl_site110]”, the “gcPBM binding intensity (ln)” value was determined as 9.39. For the sequence “TATATATATAAAAAAGCACACATACATACATACATA [CACACA_site8196]”, the “gcPBM binding intensity (ln)” value was 9.76. Turning to “ATAAACGTTTTTGAAAGTACATATCATTCATTTGAT [XGTACX_site200]”, the “gcPBM binding intensity (ln)” value was found to be 9.18. As for “ATATAATATTTATATGTACACACCTTAATCCTTAAA [CACACA_site3555]”, the “gcPBM binding intensity (ln)” value came out at 9.28. For “TTTTAACATATAAGTACACACATATAATCAATCATA [CACACA_site2325]” the value was 9.53. For the sequence “TGAATATATAAATATGCACACTTCTATTATAAATAA [CACACA_site5796]”, the “gcPBM binding intensity (ln)” value turned out to be 9.13. For the sequence “TAACATATAAGTGTGTGTACGTACTGCGTATAATAT [XGTACX_site8597]”, the “gcPBM binding intensity (ln)” value was 9.8.

In the case of “GACAAACAATATGAATGTACATAAAAATATAACTAA [XGTACX_site1167]”, the “gcPBM binding intensity (ln)” value turned out to be 9.34. Take “TGAAGAATATTTTTCACACATATATATATATATATA [CACACA_site6080]”: the “gcPBM binding intensity (ln)” value is 9.06.

As to “TATATATATAATTAAGCATGCTAGAAACCTTTGAAA [TGCATGCA_site489]”, the “gcPBM binding intensity (ln)” value was 9.19. Turning to “TACAATCTAAAATACACACGCACACCGAAAAAAAAA [CACACA_site3520]”, the “gcPBM binding intensity (ln)” value came to 9.78. Next, “ATATATATATATATATGTACATATTTTTGTTTGATG [XGTACX_site51]”: 9.08; “CAGATATTCATATAAACACACATACAAATTATGTAT [CACACA_site4258]”: 9.45; “ATATATATATATATTGCACACACAATTATTATTATT [CACACA_site8721]”: 9.58. Consider “GAGAAAAGGAAATAACGTACACATATGCATATCCAA [XGTACX_site5858]”, for which the “gcPBM binding intensity (ln)” value stood at 9.48. Next, “TGAAAGAAGCATAAATGTACACACATATTTATATAT [XGTACX_site2645]”: 9.55. For “TATTTATTGTGACACTTTTATTATTTTATGATAAAA [CACACA_negctrl_site37]”, the “gcPBM binding intensity (ln)” value was 9.06.

With “GTGTTCTTGTTATACACACACATATATATATATATA [CACACA_site1032]”, the “gcPBM binding intensity (ln)” value was 9.78.

On to “GTAATATTTTATAGTAGTACATATTTTTATTATTTT [XGTACX_site3333]”, for which the “gcPBM binding intensity (ln)” value amounted to 9.3. Next, “GAGAGGTCAGTTCACAGTACCCAGAAACTCTACGAG [XGTACX_site2559]”: 8.86; “AATATTTATTTAATTTCACACAGGTCTTTTTTTTTT [CACACA_site5188]”: 9.48.
